Measured values reported in PubChem BioAssay AID504339 (National Center for Advancing Translational Sciences (NCATS), 2011).
In all, about 390,000 compounds went through this assay and about 17,000 (4.4%) were called active. Inconclusive means that the source gave no clear call. Such entries were picked first, then a sample of the others. Calls come from the whole dose curve; as a rule, active = well fitted inhibition curve with a large enough effect; inconclusive = small, poorly fitted or top-dose-only effect; inactive = no such curve, though single readings can be large or run the other way. Potencies beside an inconclusive call are fits to weak or partial responses and may not hold up.

Each compound was assayed against Lysine-specific demethylase 4A (Homo sapiens) (UniProt O75164) (assay: qHTS Assay for Inhibitors of JMJD2A-Tudor Domain). Details: AlphaScreen JMJD2A-Tudor / H3K4me3 peptide binding; series mostly up to 114 µM.
Sequence of UniProt O75164 (O75164 whole entry, looked up, the tested form may be a part): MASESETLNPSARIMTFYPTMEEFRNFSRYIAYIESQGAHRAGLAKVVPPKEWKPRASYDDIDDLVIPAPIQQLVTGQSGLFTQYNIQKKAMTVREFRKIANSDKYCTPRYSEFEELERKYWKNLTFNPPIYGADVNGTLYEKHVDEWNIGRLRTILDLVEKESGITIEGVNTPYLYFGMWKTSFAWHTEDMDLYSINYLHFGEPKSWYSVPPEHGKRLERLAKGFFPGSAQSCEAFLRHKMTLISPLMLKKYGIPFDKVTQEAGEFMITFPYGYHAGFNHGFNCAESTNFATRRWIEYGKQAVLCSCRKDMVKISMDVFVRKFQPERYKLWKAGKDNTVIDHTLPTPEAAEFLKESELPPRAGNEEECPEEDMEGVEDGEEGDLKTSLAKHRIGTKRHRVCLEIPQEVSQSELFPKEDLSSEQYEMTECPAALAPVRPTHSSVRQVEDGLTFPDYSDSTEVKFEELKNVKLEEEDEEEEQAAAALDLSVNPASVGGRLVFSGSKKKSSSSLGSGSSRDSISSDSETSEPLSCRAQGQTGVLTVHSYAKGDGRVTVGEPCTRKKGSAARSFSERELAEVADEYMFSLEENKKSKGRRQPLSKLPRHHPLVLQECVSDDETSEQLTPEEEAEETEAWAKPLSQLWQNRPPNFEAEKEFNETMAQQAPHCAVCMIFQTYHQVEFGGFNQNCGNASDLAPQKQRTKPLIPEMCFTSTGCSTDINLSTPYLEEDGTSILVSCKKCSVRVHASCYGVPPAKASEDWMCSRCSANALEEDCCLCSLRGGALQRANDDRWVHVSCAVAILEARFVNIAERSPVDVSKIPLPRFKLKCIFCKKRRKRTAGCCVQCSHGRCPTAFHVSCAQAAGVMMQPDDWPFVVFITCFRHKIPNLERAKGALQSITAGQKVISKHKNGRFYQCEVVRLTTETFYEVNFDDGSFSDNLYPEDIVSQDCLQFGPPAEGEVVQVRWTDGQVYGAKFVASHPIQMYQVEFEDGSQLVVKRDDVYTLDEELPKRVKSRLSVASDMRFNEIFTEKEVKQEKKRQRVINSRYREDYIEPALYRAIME
Note: nearly all actives have a fitted effect of over 50% in size.
Potency is the fitted concentration of half-maximal effect; tags give direction and shape of the fitted curve.

Structure (SMILES)	Potency
CCOc1ccc(CCNC(=O)COC(=O)CNS(=O)(=O)c2ccc(NC(C)=O)cc2)cc1OCC	inactive
COc1ccc(-c2nc(C#N)c(NCCc3ccccc3)o2)cc1OC	inconclusive: 50.1 µM [inhibitor, partial curve]
CN(C)CCOCCOc1ccc(Cl)c2ccccc12	active: 3.16 µM
c1csc(C2C3=C(Nc4ncnn42)c2ccccc2OC3)c1 (configuration not stated)	inconclusive: 89.1 µM [inhibitor, single point]
CCCCCCn1c(=O)c(C(=O)N/N=C/c2cccc(F)c2)c(O)c2ccccc21	inactive
Cc1ccc(NC(=O)CN2C(=O)N/C(=C/c3cc(C)n(-c4ccc(C(=O)O)cc4)c3C)C2=O)cc1	active: 79.4 µM
Cc1ccc(CS(=O)(=O)c2ncc(Cl)c(C(=O)Nc3ccc(OC(F)F)cc3)n2)cc1	inconclusive: 14.1 µM [inhibitor, full curve]
CCNc1nc(-c2cc(C)n(Cc3ccco3)c2C)cs1	inconclusive: 56.2 µM [inhibitor, partial curve]
O=C(c1cccc(S(=O)(=O)N2CCN(c3ccc(F)cc3)CC2)c1)N1CCN(c2ccccc2O)CC1	inconclusive: 8.91 µM [inhibitor, full curve, poor fit]
Cc1ccc(Cn2c(CN3CCN(c4cccc(Cl)c4)CC3)nc3c2c(=O)n(C)c(=O)n3C)cc1	inconclusive: 7.94 µM [inhibitor, full curve, poor fit]
COc1ccccc1C=NN1C(=O)CSC1=S	inconclusive: 56.2 µM [inhibitor, partial curve, poor fit]
NN/C(=C\[N+](=O)[O-])Nc1ccc(Cl)cc1	inconclusive: 89.1 µM [inhibitor, single point]
COc1ccc(-n2c(=S)[nH]c3cc(C(=O)NCCCN4CCCC4=O)ccc3c2=O)c(OC)c1	active: 14.1 µM
O=Cc1c(NCCc2cccc(F)c2)c2ccccc2[nH]c1=O	inconclusive: 79.4 µM [inhibitor, single point]
N#CCCn1cc(/C=N/NC(N)=S)c(-c2ccc(Br)cc2)n1	inconclusive: 100 µM [inhibitor, single point]
N=C1CCC(=N)c2c1c(O)c1ccccc1c2O	active: 14.1 µM
COc1cc(Cl)c(C)cc1NC(=O)CSc1sc2c(O)cc(=O)[nH]c2c1C#N	active: 56.2 µM
O=C(/C=C/c1cccc([N+](=O)[O-])c1)Nc1cccc(NC(=O)c2cccs2)c1	inconclusive: 8.91 µM [inhibitor, partial curve]
COc1ccc(N2CCN(C(c3cc(OC)ccc3OC)c3nnnn3CC3CCCO3)CC2)cc1 (configuration not stated)	active: 79.4 µM
O=C(CCc1nnc2ccc(NCc3ccco3)nn12)N1CCN(c2ccccc2F)CC1	inconclusive: 100 µM [inhibitor, partial curve, poor fit]
COc1ccc(C(=O)NC(=S)Nc2ccc(CN3CCOCC3)cc2)cc1Br	inconclusive: 79.4 µM [inhibitor, partial curve]
C=CCOc1ccc(CN(C)CC(O)COc2ccc(CCC(C)=O)cc2)cc1 (configuration not stated)	active: 1 µM
O=C(C1CCC1)N(CCc1ccccc1)Cc1nc2ccccc2c(=O)[nH]1	inconclusive: 89.1 µM [inhibitor, single point]

Structure (SMILES)	Potency
CCCOC(=O)C1=C(C)N(C)C(=O)NC1c1cc2c(cc1[N+](=O)[O-])OCO2 (configuration not stated)	inconclusive: 15.8 µM [inhibitor, partial curve]
Cc1ccc(C2CC(=O)N3CN(Cc4ccco4)CSC3=C2C#N)cc1 (configuration not stated)	active: 56.2 µM
COc1ccc(C)c2sc(N3CCN(C(=O)c4ccco4)CC3)nc12	inactive
N#Cc1cc([N+](=O)[O-])ccc1N1CCN(c2ccccc2O)CC1	inconclusive: 56.2 µM [inhibitor, partial curve]
CCOc1ccc(N=c2scc(-c3ccccc3)n2CCO)cc1	inconclusive: 7.94 µM [inhibitor, full curve]
Cc1cc(CSc2nc(C)cc(=O)[nH]2)c2ncccc2c1	inconclusive: 89.1 µM [inhibitor, single point]
CCc1ccc2c(c1)c(N=NC1=NC(=O)CS1)c(O)n2CC	inconclusive: 89.1 µM [inhibitor, single point]
O=C(COC(=O)c1ccccc1F)Nc1ccc(S(=O)(=O)N2CCOCC2)cc1	inactive
O=S(=O)(Nc1ccccc1F)c1cccc(NC(=S)NCCN2CCOCC2)c1	active: 39.8 µM
Cc1ccc(N2C(=O)c3ccccc3C2C(=O)c2cc(C)ccc2O)cc1 (configuration not stated)	inconclusive: 56.2 µM [inhibitor, partial curve]
O=S(=O)(c1ccc(Cl)cc1)N1CCC(n2cccc2)CC1	inconclusive: 44.7 µM [inhibitor, partial curve]
COc1ccc(Cl)cc1NC(=S)NCc1ccco1	inconclusive: 56.2 µM [inhibitor, partial curve]
O=C(CONS(=O)(=O)c1ccc(Cl)cc1)NCCNc1ncc(C(F)(F)F)cc1Cl	inactive
CCOC(=O)c1ccc(N2C(=O)CC(N3CCC(Nc4ccc(F)cc4)CC3)C2=O)cc1 (configuration not stated)	inconclusive: 44.7 µM [inhibitor, partial curve]
Cc1ccccc1N=Cc1cc2c(cc1O)OC(N)=C(C#N)C2c1ccccc1 (configuration not stated)	inconclusive: 70.8 µM [inhibitor, single point]
CCN(CC)c1ccc(/C=N/NC(=O)CNC(=O)/C=C/c2ccco2)cc1	inconclusive: 56.2 µM [inhibitor, partial curve]
Cc1cc(C(=O)NCC(=O)OCC(=O)N(C2CCCCC2)C2CCCCC2)ccc1[N+](=O)[O-]	inconclusive: 63.1 µM [inhibitor, single point]
CCN(CC)CC#CCC(C)(c1ccccc1)c1ccccc1	inconclusive: 56.2 µM [inhibitor, partial curve]
N#CC1=C(N)Oc2cc(N)ccc2C1c1ccccc1Cl (configuration not stated)	inactive
CN1CCc2c(sc(/N=C/c3c[nH]c4ccccc34)c2C(N)=O)C1	inconclusive: 56.2 µM [inhibitor, partial curve]
CC(Cc1n[nH]c(=S)o1)c1ccccc1 (configuration not stated)	inconclusive: 15.8 µM [inhibitor, full curve]
O=C(COc1ccc(Br)cc1)NNC(=O)c1ccc(-n2cncn2)c([N+](=O)[O-])c1	inactive
CC(=O)c1ccc(N2CCN(CC3CCCCC3)CC2)cc1	active: 35.5 µM

Structure (SMILES)	Potency
COCCn1c(=O)[nH]c2cc(C(=O)N3CCN(c4cccc(C)c4C)CC3)ccc2c1=O	inactive
CCOC(=O)Cc1c(C)nc2cc(-c3ccc(C)cc3)[nH]n2c1=O	inconclusive: 79.4 µM [inhibitor, single point]
CCOc1ccc(CCNC(=O)c2nnn(CC(=O)Nc3ccc(C)cc3)c2N)cc1OCC	inconclusive: 50.1 µM [inhibitor, partial curve]
CNC[C@H]1Oc2ccc(NC(=O)Nc3ccc4c(c3)OCO4)cc2C(=O)N([C@H](C)CO)C[C@@H]1C	inconclusive: 50.1 µM [inhibitor, partial curve]
COc1ccc(NC(=O)CSCc2cc(=O)n3cc(C)sc3n2)cc1	inconclusive: 15.8 µM [inhibitor, full curve, poor fit]
COc1ccc(NC(=O)CSc2ncnc3c2cnn3Cc2ccccc2)cc1OC	inconclusive: 100 µM [inhibitor, partial curve]
CCOc1cccc(=O)c2c(C)n(Cc3ccccc3)c(C)c12	inconclusive: 79.4 µM [inhibitor, single point]
CCn1c(NCc2ccccn2)nc2c1c(=O)n(C)c(=O)n2C	inconclusive: 12.6 µM [inhibitor, full curve]
O=C1Nc2cc(C(=O)NCCCN3CCOCC3)ccc2S/C1=C/c1cccc(Cl)c1	inactive
CC(=O)N1CCCC1c1nc2ccccc2n1Cc1ccccc1F (configuration not stated)	inactive
COCCN1C(=O)C(=O)/C(=C(/O)c2cccc(OC)c2)C1c1ccncc1 (configuration not stated)	inconclusive: 89.1 µM [inhibitor, single point]
Cc1ccc(OCC(=O)Nc2nonc2-c2ccc(Br)cc2)cc1	inconclusive: 50.1 µM [inhibitor, partial curve]
COc1ccc(N2CCN(C(c3ccc(F)cc3)c3sc4nc(-c5ccco5)nn4c3O)CC2)cc1 (configuration not stated)	inconclusive: 56.2 µM [inhibitor, partial curve]
Cc1cc(Cl)ccc1OCC(=O)N(Cc1ccc(N(C)C)cc1)C1CCS(=O)(=O)C1 (configuration not stated)	active: 50.1 µM
COc1ccccc1N1CCN(/N=C/C(Cl)=C/c2ccccc2)CC1	inconclusive: 25.1 µM [inhibitor, full curve]
Cc1ccc(Nc2c(-c3ccc(C)o3)nc3cnccn23)cc1	active: 39.8 µM
O=[N+]([O-])c1cccc(OCCN2CCC(Cc3ccccc3)CC2)c1	active: 14.1 µM
COc1ccc(C(C)=O)cc1CSc1nnc(Nc2ccc(C)cc2C)s1	inconclusive: 25.1 µM [inhibitor, full curve, poor fit]
COc1ccc(C(=O)N/N=C(\C)c2ccc3c(c2)C2C=CCC2C(c2ccccc2)N3)cc1 (configuration not stated)	inconclusive: 79.4 µM [inhibitor, partial curve]
COc1ccc(C2c3[nH]c4ccccc4c3CCN2C(=O)c2ccc(=O)n(C)n2)c(F)c1 (configuration not stated)	inconclusive: 50.1 µM [inhibitor, partial curve]
NNC(=S)NC1CCCCCCCCCCC1	inconclusive: 56.2 µM [inhibitor, partial curve]
